# Experimental data reported in PubChem BioAssay AID1477 (National Center for Advancing Translational Sciences (NCATS), 2009).
# Screen size: about 230,000 compounds; fewer than 10 were called active. The inconclusive results got no clear call from the source; some entries with a clear call stand among them for comparison. The call rests on the fitted dose curve; in most records, active means well fitted curve in the direction sought with a large enough effect; inconclusive means small, poorly fitted or top-dose-only effect, or effect the other way, or another doubt; inactive means no such curve, though single readings can be large or run the other way. No potency is given beside an inconclusive call; the fits are too rough.
# Target: Runt-related transcription factor 1 (Homo sapiens) + Core-binding factor subunit beta (Homo sapiens) (UniProt Q01196+Q13951)
# Test: qHTS Assay for Compounds Blocking the Interaction Between CBF-beta and RUNX1 for the Treatment of Acute Myeloid Leukemia; on activity, negative = inhibition: % of control where 0% means no effect
# Conditions: AlphaScreen CBFb-His/RUNX1-biotin binding, biochemical; activity, negative = inhibition: at 59.8 µM (top of the series) unless noted
# Source text: NIH Chemical Genomics Center [NCGC]
# NIH Molecular Libraries Probe Production centers Network [MLPCN]
# Assay Submitter (PI): Paul Liu
# Core Binding Factor (CBF) abnormalities are associated with 20-25% of all acute myeloid leukemias (AML), of which 5-10% are further sub classified as acute myelomonocytic leukemia with eosinophilia, also known as M4Eo in the FAB classification scheme. This subtype of leukemia is usually associated with chromosome 16 inversion (p13:q22). Chromosome 16 inversion results in formation of the fusion oncogene CBFB-MYH11, which encodes the fusion protein CBF-beta-SMMHC.
# It has been hypothesized that the interference of CBF-beta and RUNX1 binding could have therapeutic implications for patients with CBF mediated leukemias. We developed a CBF-beta and RUNX1 binding assay in AlphaScreenTM format and optimized it for high throughput screening to search for inhibitors. The goal of this project is to screen MLPCN's compound collection (MLSMR) for identifying the inhibitors of the interaction between CBF-beta and RUNX1 proteins as research probes. If these probes work well in the animal models, the ultimate goal of this project is to development a new drug treatment for this disease.
# This assay can not be used to assess how apparent inhibitors interfere with protein binding, and whether inhibitors specifically bind to either protein. Disruption of this protein-protein interaction, through any mechanism, is the intended target activity.
# NCGC Assay Protocol Summary:
# Step, Parameter, Description
# (1) Reagent, 3 uL CBFb-His/RUNX1-biotin mix incubated together for 20 minutes at room temperature (30 nM each)
# (2) Compound or control, 23 nL compound stock solution
# (3) Incubation, 15 minutes at Room temperature
# (4) Reagent, 1 uL 50 ng each of beads (Nickel beads and streptavidin beads)
# (5) Incubation, 90 minutes at Room temperature
# (6) Detection, Excitation=365 nm Emission=440 nm, Envision reader in AlphaScreenTM mode
# Keywords: MLSMR, MLPCN, NIH Roadmap, qHTS, NCGC, Core binding factor, CBF, CBF-beta, Acute myeloid leukemia
# Sequence of UniProt Q01196 (Q01196 whole entry, looked up): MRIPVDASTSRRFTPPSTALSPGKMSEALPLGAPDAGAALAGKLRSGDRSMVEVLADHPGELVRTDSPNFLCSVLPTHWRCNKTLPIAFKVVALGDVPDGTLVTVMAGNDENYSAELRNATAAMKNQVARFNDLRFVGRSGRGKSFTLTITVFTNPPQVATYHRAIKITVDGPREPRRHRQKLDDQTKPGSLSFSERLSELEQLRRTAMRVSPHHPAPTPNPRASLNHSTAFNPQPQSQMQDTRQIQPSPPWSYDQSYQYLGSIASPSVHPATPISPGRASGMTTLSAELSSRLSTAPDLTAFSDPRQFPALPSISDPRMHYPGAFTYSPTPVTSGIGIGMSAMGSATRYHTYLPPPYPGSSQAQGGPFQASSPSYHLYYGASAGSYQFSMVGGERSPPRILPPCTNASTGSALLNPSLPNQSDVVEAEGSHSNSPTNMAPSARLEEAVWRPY
# Sequence of UniProt Q01196 (Q13951 whole entry, looked up): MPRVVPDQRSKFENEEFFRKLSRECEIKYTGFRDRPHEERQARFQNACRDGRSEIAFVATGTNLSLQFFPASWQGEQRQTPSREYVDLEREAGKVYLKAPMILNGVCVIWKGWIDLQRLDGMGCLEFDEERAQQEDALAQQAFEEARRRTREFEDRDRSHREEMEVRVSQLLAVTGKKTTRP
Compound,"activity, negative = inhibition",Potency
COc1ccc2[nH]c(-c3ccc(C)cc3)cc(=O)c2c1,inactive: 5.31% [at 2.36 µM],–
CCOCCCNS(=O)(=O)c1ccc(NC(=O)Cc2c(F)cccc2Cl)cc1,–,inactive
Cc1cc(C)n2nc(C(=O)Nc3ccc4c(c3)OCO4)nc2n1,–,"inconclusive [inhibitor, single point]"
CN(C)C(=O)Oc1c(Cl)cc(Cl)c2cccnc12,–,inactive
Fc1cccc(Cl)c1Cc1noc(/C=C/c2ccccc2)n1,–,"inconclusive [activator, single point]"
O=C(/C=C/c1ccccc1[N+](=O)[O-])Nc1ccccc1,–,inactive
OC[C@@H]1[C@@H](c2ccccc2)C(c2ccc(F)cc2)=NN1c1ccccc1,–,"inconclusive [activator, partial curve]"
Cc1occc1C(=O)Nc1ccc(S(N)(=O)=O)cc1,–,"inconclusive [inhibitor, single point]"
Cc1ccnc(-n2c(C)cc(C=C3C(=O)N(C)C(=S)N(C)C3=O)c2C)c1,–,inactive
Oc1cccc(NC(=S)N=Nc2c(O)[nH]c3ccc(Br)cc23)c1,–,"inconclusive [inhibitor, partial curve]"
COc1ccc(-c2nn(-c3ccccc3)cc2/C=N/N2C(=O)CSC2=S)cc1,–,"inconclusive [inhibitor, single point]"
CC(C)(C)c1cc(NC(=O)c2ccco2)n(-c2ccccc2)n1,–,"inconclusive [activator, single point]"
FC(F)C(F)(F)C(F)(F)C(F)(F)c1cc(-c2ccccc2)n[nH]1,–,inactive
Cc1ccc(Cn2c(=S)[nH]c3ccc(N4CCOCC4)cc3c2=O)o1,–,"inconclusive [inhibitor, single point]"
O=C(N/N=C\c1cccc(Cl)c1)c1ccc(Cn2cc(Br)c([N+](=O)[O-])n2)o1,–,"inconclusive [activator, single point]"
O=C(O)c1ccc(NC2=C/C(=N/S(=O)(=O)c3ccccc3)c3ccccc3C2=O)cc1,–,"inconclusive [inhibitor, single point]"

Compound,"activity, negative = inhibition",Potency
O=C1/C(=C/c2c[nH]c3ccccc23)CCC/C1=C\c1c[nH]c2ccccc12,–,"inconclusive [inhibitor, single point]"
Cc1ccccc1NC(=O)CCC(=O)OCC(=O)c1cccc([N+](=O)[O-])c1,–,inactive
Cc1ccc2oc(=O)c3cc(C(=O)NCCN4CCc5ccccc5C4)sc3c2c1,–,inactive
Cc1onc(-c2c(Cl)cccc2Cl)c1CO/N=C(\C#N)c1c(Cl)cccc1Cl,–,"inconclusive [activator, single point]"
CCN1CCc2c(sc(NC(=S)NC(=O)c3ccc(Cl)cc3)c2C(N)=O)C1,–,"inconclusive [inhibitor, single point]"
Cc1ccccc1N1CC2=C(C1=O)C(c1ccccc1)NC(=O)N2C (stereo unspecified),–,"inconclusive [activator, full curve]"
O=C(NCc1ccco1)c1cc2c(s1)CSC2,–,"inconclusive [inhibitor, single point]"
CC12CCC=CC1C(c1ccc(C(F)(F)F)cc1)N(Cc1ccccc1)C2=O (stereo unspecified),–,inactive
COc1ccccc1-n1c(-c2cn(C)nc2C)n[nH]c1=S,–,inactive
CSCC[C@H](NC(=O)[C@H](CO)NC(=O)[C@H](Cc1ccc(O)cc1)NC(=O)[C@@H](N)CO)C(=O)N[C@@H](CCC(=O)O)C(=O)N[C@@H](Cc1cnc[nH]1)C(=O)N[C@@H](Cc1ccccc1)C(=O)N[C@@H](CCCNC(=N)N)C(=O)N[C@@H](Cc1c[nH]c2ccccc12)C(=O)NCC(=O)N[C@@H](CCCCN)C(=O)N1CCC[C@H]1C(=O)N[C@H](C(=O)NCC(=O)N[C@@H](CCCCN)C(=O)N[C@@H](CCCCN)C(=O)N[C@@H](CCCNC(=N)N)C(=O)N[C@@H](CCCNC(=N)N)C(=O)N1CCC[C@H]1C(=O)N[C@H](C(=O)N[C@@H](CCCCN)C(=O)N[C@H](C(=O)N[C@@H](Cc1ccc(O)cc1)C(=O)N1CCC[C@H]1C(=O)N[C@@H](CC(N)=O)C(=O)NCC(=O)N[C@@H](C)C(=O)N[C@@H](CCC(=O)O)C(=O)N[C@@H](CC(=O)O)C(=O)N[C@@H](CCC(=O)O)C(=O)N[C@@H](CO)C(=O)N[C@@H](C)C(=O)N[C@@H](CCC(=O)O)C(=O)N[C@@H](C)C(=O)N[C@@H](Cc1ccccc1)C(=O)N1CCC[C@H]1C(=O)N[C@@H](CC(C)C)C(=O)N[C@@H](CCC(=O)O)C(=O)N[C@@H](Cc1ccccc1)C(=O)O)C(C)C)C(C)C)C(C)C,–,inactive
CCC(=O)Nc1cccc(C2=NOC3(C2)C[C@@H](C(N)=O)N(C(=O)C2(C)CC2)C3)c1 (stereo partly specified),–,"inconclusive [inhibitor, single point]"
CCOC(=O)C(Cc1ccccc1)C(=O)Nc1cccc(C)c1 (stereo unspecified),–,inactive
COc1ccc(NS(=O)(=O)c2ccc(NC(=S)NC(=O)c3cccc(F)c3)cc2)nn1,–,inactive
CC(C)CN1CCNC(=O)C1CC(=O)NCCCN1CCCc2ccccc21 (stereo unspecified),–,"inconclusive [inhibitor, single point]"
COc1ccc(N2Cc3cccc(C(=O)NC(C)CCc4ccco4)c3C2=O)cc1 (stereo unspecified),–,"inconclusive [inhibitor, full curve, poor fit]"
